# The whole screen tested about 350,000 compounds, of which about 9,900 (2.8%) were called active. The inconclusive results got no clear call from the source; some entries with a clear call stand among them for comparison. Calls follow the shape of the dose curve; as a rule, active = well fitted activation curve with a large enough effect; inconclusive = small, poorly fitted or top-dose-only effect; inactive = no such curve, though single readings can be large or run the other way. No potency is given beside an inconclusive call; the fits are too rough.
# Assay: A quantitative high throughput screen for small molecules that induce DNA re-replication in MCF 10a normal breast cells. Also: nearly all actives have a fitted effect of over 50% in size.
# Details: MCF 10A DNA re-replication, Hoechst nuclear intensity, 48 h; series mostly up to 46.1 µM
# Potency is read from the fitted curve at half-maximal effect; tags tell the direction and shape of the fitted curve.
row,SMILES,Potency
1,CCCOc1ccc(-c2nnn(CC(=O)N3CCCC(C)C3)n2)cc1 (centres undefined),"inconclusive [activator, partial curve, poor fit]"
2,CC(C)(C)NC(=O)CSC(=Nc1ccccc1F)NC#N,"inconclusive [activator, single point]"
3,COc1ccccc1C1CCN(Cc2cccc3ccccc23)CC1,"inconclusive [activator, single point]"
4,COc1ccc(OC)c(NC(=O)c2ccc(NC(C)=O)cc2)c1,inactive
5,CC(C)c1ccc(NC(=O)c2cc(Br)ccc2Br)cc1,"inconclusive [activator, partial curve, poor fit]"
6,NS(=O)(=O)c1ccc(CNC(=O)c2cccc(S(=O)(=O)N3CCc4ccccc43)c2)cc1,inactive
7,Cc1ccsc1/C=N/NC(=O)C1CC(=O)N(c2ccc(F)cc2)C1 (centres undefined),"inconclusive [activator, single point]"
8,COc1ccc(-c2nc3cnccn3c2NC(C)(C)CC(C)(C)C)cc1O,"inconclusive [activator, single point]"
9,COc1ccc(NC(=O)c2ccc(Cl)cc2)c[n+]1[O-],inactive
10,CCn1c(SCc2cccc(C(=O)O)c2)nnc1-c1ccccc1,"inconclusive [activator, single point]"
11,COC(=O)C1=CN(Cc2ccc(OC)c(OC)c2)C=C(C(=O)OC)C1c1cccc(O)c1,"inconclusive [activator, single point]"
12,O=C(NCC(c1ccco1)N1CCCCC1)c1ccc(COc2ccccc2)cc1 (centres undefined),"inconclusive [activator, single point]"
13,O=C1CCCCN1CCC(=O)N1CCCC(Nc2ccccc2)C1 (centres undefined),"inconclusive [activator, single point]"
14,COc1ccc(N=C2CCS(=O)(=O)c3sccc32)cc1,"inconclusive [activator, single point]"
15,COc1ccc(C2/C=C\CN(C(=O)Nc3ccccc3-c3ccccc3)CC(=O)N2Cc2ccc(F)cc2)cc1 (centres undefined),"inconclusive [activator, single point]"
16,C#CCCOC(=O)N1C2=NC(C(=O)OC)=C(C(=O)OC)[C@@H]3N(C)c4ccc(OC)cc4[C@]23C[C@H]1C(=O)OC,"inconclusive [activator, full curve, poor fit]"
17,Cc1cc(C)c(C)c(S(=O)(=O)N2CCN(c3ncnc4ccccc34)CC2)c1C,active: 18.4 µM
18,CCN(CC)CCn1c(=N)n(CC(O)c2ccc(OC)c(OC)c2)c2ccccc21 (centres undefined),"inconclusive [activator, partial curve, poor fit]"
19,O=C(CSc1nc2ccccc2s1)Nc1cc(S(=O)(=O)N2CCOCC2)ccc1O,inactive
20,Cc1ccc(S(=O)(=O)c2c(CO)c(-c3ccccc3)nn2C)cc1,inactive
21,COc1ccccc1CCNC(=O)C(=O)NCC1OCCCN1S(=O)(=O)c1ccc(F)cc1C (centres undefined),inactive
22,Cc1ccc2nc(-c3ccsc3)c(NC3CCCC3)n2c1,"inconclusive [activator, single point]"

row,SMILES,Potency
1,O=C(CCSc1ccccc1)Nc1nc2c(s1)COc1ccccc1-2,"inconclusive [activator, single point]"
2,COc1ccc(NC(=O)CN(C)C2=NS(=O)(=O)c3ccccc32)cc1Cl,inactive
3,COCCN(C(=S)Nc1ccc(OC)c(Cl)c1)C1CCN(C(C)C)CC1,inactive
4,Nc1c(C(=O)Nc2ccc3c(c2)OCCO3)nnn1Cc1cccc(Cl)c1,"inconclusive [activator, partial curve, poor fit]"
5,O=C(Nc1ccc(CN2CCCCC2)cc1)c1c(F)c(F)c(F)c(F)c1F,"inconclusive [activator, single point]"
6,CC(=O)C1=C(NC(=O)c2ccccc2F)C[C@@H]2[C@H]1C2(C)C,inactive
7,CCC1(C)Cc2nc(Cl)c(C#N)cc2CO1 (centres undefined),inactive
8,COc1ccccc1C(=O)NC(=S)NNC(=O)c1sc2ccccc2c1Cl,active: 5.17 µM
9,CCC(Sc1nnc2c3ccccc3n(CC)c2n1)C(=O)Nc1sc2c(c1C#N)CCCC2 (centres undefined),"inconclusive [activator, partial curve, poor fit]"
10,CCCc1nc(SCC(=O)c2ccc(F)cc2)c2ccccc2n1,"inconclusive [activator, single point]"
11,CC(C)Oc1nc(-c2ccccc2Cl)nc2ccccc12,"inconclusive [activator, single point]"
12,Clc1ccc2nnnc(-c3ccccc3)c2c1,active: 3.26 µM
13,COC(=O)c1ccc2nc(C)cc(Nc3ccc(N(C)C)cc3)c2c1,"inconclusive [activator, partial curve, poor fit]"
14,O=C(Cc1n[nH]c(=O)c2ccccc12)OCC(=O)c1ccc(OC(F)F)cc1OC(F)F,"inconclusive [activator, single point]"
15,COc1cc(C)ccc1OCc1cc(C(=O)N2CCCCCC2)no1,"inconclusive [activator, partial curve, poor fit]"
16,COc1ccc(-c2cccc(C3CC=CC4C3C(=O)N(Cc3ccccc3)C4c3ccc(C(F)(F)F)cc3)c2)cc1 (centres undefined),"inconclusive [activator, full curve, poor fit]"
17,c1csc(CNc2ncnc3sccc23)c1,inactive
18,COc1ccc(N2CCN(C3CC(=O)N(c4ccc5c(c4)OCCO5)C3=O)CC2)cc1 (centres undefined),"inconclusive [activator, partial curve, poor fit]"
19,CC(C)c1ccccc1OCC(=O)Nc1nnc(C2CC2)s1,"inconclusive [activator, partial curve, poor fit]"
20,Nc1c(C(=O)c2ccc(F)cc2)oc2ccccc12,active: 7.31 µM
21,CCn1nc(C)cc1C(=O)N1CCCC(C(=O)c2ccc3ccccc3c2)C1 (centres undefined),"inconclusive [activator, partial curve]"
22,Nc1ccc2c(c1)C(=NO)c1ccccc1-2,"inconclusive [activator, single point]"

# Reference: PubChem BioAssay AID624296 (National Center for Advancing Translational Sciences (NCATS), 2012)
